Experimental data as given in the supplement of paper PMC4604168 (melanoma cell lines).
Some of the results follow. Repeats are few or missing, and single values can be far off.

Experiments:
Assay in all cases: cell count relative to DMSO control; melanoma cells; higher = more viable cells
Conditions in all cases: library dose: low library concentration; 72 h
[1] = system: COLO792
[2] = system: COLO800
[3] = system: COLO829
[4] = system: G361
[5] = system: IPC-298
[6] = system: IST-MEL1
[7] = system: LB2518-MEL
[8] = system: LOXIMVI
[9] = system: MEL-HO
[10] = system: MZ2-MEL
[11] = system: MeWo
[12] = system: RPMI7951
[13] = system: RVH-421
[14] = system: SkMel28
[15] = system: SkMel2
[16] = system: SkMel30
[17] = system: SkMel5
[18] = system: UACC257
[19] = system: UACC62
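Also: cell number obtained by counting DAPI-stained nuclei in high-throughput microscope images with image analysis software, screen run in 1,536-well plates.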

| Structure (SMILES) | cell count [1] [%] | cell count [2] [%] | cell count [3] [%] | cell count [4] [%] | cell count [5] [%] | cell count [6] [%] | cell count [7] [%] | cell count [8] [%] | cell count [9] [%] | cell count [10] [%] | cell count [11] [%] | cell count [12] [%] | cell count [13] [%] | cell count [14] [%] | cell count [15] [%] | cell count [16] [%] | cell count [17] [%] | cell count [18] [%] | cell count [19] [%] |
| --- | --- | --- | --- | --- | --- | --- | --- | --- | --- | --- | --- | --- | --- | --- | --- | --- | --- | --- | --- |
| NC1(c2ccc(-c3nc4ccn5c(=O)[nH]nc5c4cc3-c3ccccc3)cc2)CCC1 + COc1cc2c(Oc3ccc4[nH]c(C)cc4c3F)ncnc2cc1OCCCN1CCCC1 [cediranib] (first compound 0.4 µM, partner dose 0.4 µM) | 76.7 | 143 | 101 | 107 | 92.2 | 93.2 | 93.8 | 107 | 79.5 | 93.6 | 91.2 | 91.7 | 88.1 | 77.9 | 90.5 | 86.5 | 83.7 | 88.7 | 76.1 |
| NC1(c2ccc(-c3nc4ccn5c(=O)[nH]nc5c4cc3-c3ccccc3)cc2)CCC1 + CCN(CC)CCCCNc1ncc2cc(-c3cc(OC)cc(OC)c3)c(NC(=O)NC(C)(C)C)nc2n1 [PD173074] (first compound 0.4 µM, partner dose 0.1 µM) | 72.7 | 76.1 | 106 | 85.4 | 92.4 | 91.2 | 88.8 | 63.8 | 84.9 | 93.4 | 92.4 | 101 | 97.9 | 73.6 | 82.6 | 79.4 | 89.7 | 71.8 | 72.2 |
| CS(=O)(=O)c1ccc(C(=O)Nc2ccc(Cl)c(-c3ccccn3)c2)c(Cl)c1 [vismodegib] + COc1cc(Nc2ncc(F)c(Nc3ccc4c(n3)NC(=O)C(C)(C)O4)n2)cc(OC)c1OC [Tamatinib] (first compound 1 µM, partner dose 0.4 µM) | 58.4 | 86.5 | 89 | 83.4 | 86.4 | 88 | 84.7 | 110 | 94.3 | 88.8 | 84.4 | 77.2 | 110 | 92.6 | 89.3 | 93.2 | 88.5 | 69.7 | 78.7 |
| CCCS(=O)(=O)Nc1ccc(F)c(C(=O)c2c[nH]c3ncc(Cl)cc23)c1F + CCN(CC)CCCCNc1ncc2cc(-c3cc(OC)cc(OC)c3)c(NC(=O)NC(C)(C)C)nc2n1 [PD173074] (first compound 0.08 µM, partner dose 0.1 µM) | 99.1 | 111 | 74.2 | 84.5 | 99.4 | 95.6 | 104 | 99.7 | 91.2 | 97.1 | 103 | 97.8 | 91 | 90 | 106 | 86.2 | 119 | 93.7 | 62.9 |
| CCCS(=O)(=O)Nc1ccc(F)c(C(=O)c2c[nH]c3ncc(Cl)cc23)c1F + CC(C)CCN1c2nc(Nc3cc(F)c(O)c(F)c3)ncc2N(C)C(=O)C1C [BID1870] (first compound 0.08 µM, partner dose 0.2 µM) | 91.4 | 172 | 95.2 | 73.4 | 90.9 | 90.9 | 113 | 89.8 | 90.5 | 86 | 98.9 | 107 | 105 | 97.5 | 98.3 | 103 | 117 | 110 | 58.8 |
| C=C(c1ccc(C(=O)O)cc1)c1cc2c(cc1C)C(C)(C)CCC2(C)C [Bexarotene] + N#Cc1c(O)c2c(-c3ccc(-c4ccccc4O)cc3)csc2[nH]c1=O [A769662] (first compound 2 µM, partner dose 2 µM) | 112 | 121 | 103 | 90 | 88 | 104 | 109 | 130 | 96.5 | 90.5 | 104 | 83.1 | 88.8 | 83.4 | 104 | 123 | 100 | 113 | 87.5 |
| C=C(c1ccc(C(=O)O)cc1)c1cc2c(cc1C)C(C)(C)CCC2(C)C [Bexarotene] + CCc1ccc(CCOc2ccc(CC3SC(=O)NC3=O)cc2)nc1 [pioglitazone] (first compound 2 µM, partner dose 2 µM) | 75.6 | 156 | 109 | 89.4 | 102 | 99.4 | 114 | 147 | 103 | 105 | 90.7 | 82.6 | 134 | 90.3 | 99.4 | 128 | 88.4 | 118 | 93.6 |
| CCCS(=O)(=O)Nc1ccc(F)c(C(=O)c2c[nH]c3ncc(Cl)cc23)c1F + O=C(O)c1ccc(-c2c[nH]c3ncc(-c4ccccc4)cc23)cc1C1CCCC1 [GSK650394] (first compound 0.08 µM, partner dose 0.16 µM) | 89.8 | 99.3 | 113 | 71.7 | 94.6 | 87.1 | 103 | 124 | 80.1 | 82.5 | 88.5 | 98.2 | 89.5 | 82.8 | 87.9 | 92.1 | 115 | 65.7 | 63.3 |
